Results on five molecules are retold here after PMC8358026.

For assay [1], the target named is ICAM1 with C-terminal Flag tag (ICAM1-Flag) or C-terminal Myc tag (ICAM1-Myc), wild type (human) (UniProt P05362). The assay is described as follows: co-IP; ICAM1-Flag and ICAM1-Myc (or a Myc variant) transfected into two separate sets of HEK-293 cells; cells mixed and aggregated on poly-HEMA plates for 3-6 h, lysed in Pierce IP lysis buffer; anti-Flag magnetic beads overnight at 4 °C; immunoblots for Flag, Myc and ICAM1. A general note: Immunoblotting shows a protein as a band on a membrane.

For assay [2], the target named is T1, ICAM1 with C-terminal Flag tag (ICAM1-Flag) or C-terminal Myc tag (ICAM1-Myc), wild type (human), P05362.
T1 chain: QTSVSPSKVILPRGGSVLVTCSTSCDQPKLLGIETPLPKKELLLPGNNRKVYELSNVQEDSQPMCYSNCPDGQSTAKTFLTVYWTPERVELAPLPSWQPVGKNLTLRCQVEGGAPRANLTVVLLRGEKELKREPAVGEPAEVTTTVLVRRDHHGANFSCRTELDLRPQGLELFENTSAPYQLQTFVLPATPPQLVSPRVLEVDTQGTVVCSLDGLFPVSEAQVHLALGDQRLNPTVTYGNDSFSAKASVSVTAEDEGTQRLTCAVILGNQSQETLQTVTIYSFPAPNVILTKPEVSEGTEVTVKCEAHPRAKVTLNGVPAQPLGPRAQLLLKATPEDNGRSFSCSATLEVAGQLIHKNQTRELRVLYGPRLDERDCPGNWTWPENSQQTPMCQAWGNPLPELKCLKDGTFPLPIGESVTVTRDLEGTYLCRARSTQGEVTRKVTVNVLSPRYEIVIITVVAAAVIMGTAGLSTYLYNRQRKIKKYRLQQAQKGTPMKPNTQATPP
Described as above. The conditions noted are these: remark: other sources report otherwise.

Results are given in words; binding and its absence hold for the method and conditions named. Binding seen in cells or lysates may run through a third protein. Some binding calls cover weakened binding; strength is not graded here. For some assays here: Tags and fused reporters may be left off the sequences shown.

For the molecule “ICAM1-Myc variant M1 with truncated domain II (Δ112-211) (from UniProt P05362 28-532)”, the binding entry in assay [1] is given as “no binding”. Still for that read-out and setting: the entry for “ICAM1-Myc variant M2 with truncated domain IV (Δ310-394) (from UniProt P05362 28-532)” is “no binding”; for “ICAM1-Myc variant M3 with predicted homodimer-disruptive mutations R287D/N296E/Q297A in domain III (from UniProt P05362 28-532)” it is “no binding”.

With “ICAM1-Myc variant M4 with combined mutations (M1-M2-M3) (from UniProt P05362 28-532)”, the binding entry in assay [1] was “no binding”.

B1: ICAM1 with C-terminal Flag tag (ICAM1-Flag) or C-terminal Myc tag (ICAM1-Myc), wild type, P05362 28-532 (protein)
chain: QTSVSPSKVILPRGGSVLVTCSTSCDQPKLLGIETPLPKKELLLPGNNRKVYELSNVQEDSQPMCYSNCPDGQSTAKTFLTVYWTPERVELAPLPSWQPVGKNLTLRCQVEGGAPRANLTVVLLRGEKELKREPAVGEPAEVTTTVLVRRDHHGANFSCRTELDLRPQGLELFENTSAPYQLQTFVLPATPPQLVSPRVLEVDTQGTVVCSLDGLFPVSEAQVHLALGDQRLNPTVTYGNDSFSAKASVSVTAEDEGTQRLTCAVILGNQSQETLQTVTIYSFPAPNVILTKPEVSEGTEVTVKCEAHPRAKVTLNGVPAQPLGPRAQLLLKATPEDNGRSFSCSATLEVAGQLIHKNQTRELRVLYGPRLDERDCPGNWTWPENSQQTPMCQAWGNPLPELKCLKDGTFPLPIGESVTVTRDLEGTYLCRARSTQGEVTRKVTVNVLSPRYEIVIITVVAAAVIMGTAGLSTYLYNRQRKIKKYRLQQAQKGTPMKPNTQATPP
For the molecule B1, the binding entry in assay [2] was “binds”.
